“And” between values parts separate entries of the source, which are not always exact repeats. Equal entries are not always repeated. About 50,000 (12%) of roughly 420,000 compounds were called active. The shares of active, inactive and inconclusive entries below differ from those in the screen. Calls come from the whole dose curve; as a rule, active = well fitted inhibition curve with a large enough effect; inconclusive = small, poorly fitted or top-dose-only effect; inactive = flat fitted curve, though single readings scatter. Potencies of inconclusive entries are left out as doubtful fits.
Test: qHTS for Inhibitors of human tyrosyl-DNA phosphodiesterase 1 (TDP1): qHTS in cells in presence of CPT; note: nearly all actives have a fitted effect of over 55% in size
Conditions: chicken DT40 Tdp1-/-;hTDP1 cells + 20 nM CPT, ATP luminescence, 48 h; activity change, negative = growth inhibition: at 46.2 µM (top of the series) unless noted
Outline: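 Chicken DT40 Tdp1-/- cells stably complemented with human TDP1 were seeded at 400 cells/well in medium containing 20 nM camptothecin, exposed to pin-transferred compounds, and grown at 37 °C for at least 48 hr. Viability was read as ATP luminescence.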
% is set by controls: 0 for no effect and ±100 for the full control effect; potency is the fitted concentration of half-maximal effect; tags give direction and shape of the fitted curve.

SMILES | Potency | activity change, negative = growth inhibition
COc1ccc(C(=O)Nc2cccc(C(=O)OCc3cc(=O)n4c5c(sc4n3)CCCC5)c2)cc1 | inconclusive [inhibitor, single point] | –
CCOC(=O)C1=CC[C@@H](c2ccccc2Cl)N(S(=O)(=O)c2ccc(C)cc2)[C@H]1C(=O)OCC | inconclusive [inhibitor, single point] | –
COc1cccc(CSc2nc3n(n2)C(CC(C)C)C(C(=O)Nc2ccccc2C)=C(C)N3)c1 (configuration not stated) | inconclusive [inhibitor, single point] | –
O=[N+]([O-])c1ccc2c(c1Nc1ccccc1)=NC1(CCCCC1)N=2 | inconclusive [inhibitor, single point] | –
Cc1cc(-c2nn(-c3ccccc3F)cc2CN2CCCC(CO)C2)c(C)s1 (configuration not stated) | inconclusive [inhibitor, partial curve] | –
Cc1ccccc1-c1nnc(SCCOc2ccc3c(C)cc(=O)oc3c2)o1 | inconclusive [inhibitor, single point] | –
Cc1ccc(NC(=O)OCCN2CCN(S(=O)(=O)c3ccc(C)cc3)CCC2=O)cc1 | inconclusive [inhibitor, single point] | –
CCN1CCCc2cc(CN(CCN3CCOCC3)C(=O)Nc3ccc(C)c(C)c3)ccc21 | inconclusive [inhibitor, single point] | –
Cc1ccccc1NC(NC(=O)c1cccnc1)C(Cl)(Cl)Cl (configuration not stated) | inconclusive [inhibitor, single point] | –
COc1ccccc1OCC(=O)NNC(=O)CCCC(=O)NNC(=O)COc1ccccc1OC | inactive | –
CCOc1ccc(NC(=O)C(c2ccccn2)N(C(=O)CCl)c2ccc(OCC)cc2)cc1 (configuration not stated) | inconclusive [inhibitor, single point] | –
CC(=O)c1cccc(NC(=O)c2c(F)c(F)c(F)c(F)c2F)c1 | inconclusive [inhibitor, single point] | –
O=c1cc(-c2ccccc2)n(S(=O)(=O)c2ccc3ccccc3c2)o1 | inactive | –
Cc1ccc(S(=O)(=O)n2nc(-c3ccco3)nc2N)cc1 | inactive | –
Cc1c(C(=O)N(Cc2ccccc2)C2CCS(=O)(=O)C2)oc2ccccc12 (configuration not stated) | inconclusive [inhibitor, single point] | –
O=C(C1=C[C@H](c2ccccc2)C[C@H](OCCCCO)O1)N1CCN(Cc2ccccc2)CC1 | inconclusive [inhibitor, single point] | –
Cc1cccc(-c2ccc3[nH]c4c(c3c2)CCN2C[C@@H]([C@H](C)O)[C@@H](N(C)C(=O)NC3CCCCC3)C[C@@H]42)c1 | active: 13 µM | –
COc1ccc(CCNC(=O)c2cnn(-c3nccc(-c4cccs4)n3)c2C)cc1OC | inconclusive [inhibitor, single point] | –
CC1Cc2cc(S(=O)(=O)N3CCC(C(=O)N4CCCCC4)CC3)ccc2N1C(=O)C1CC1 (configuration not stated) | inconclusive [inhibitor, partial curve] | –
CC(=O)NCCNc1ncnc2ccc(-c3ccc4c(c3)OCO4)cc12 | active: 16.4 µM | –
COc1cc(OC)c(NC(=O)c2cccc(F)c2)cc1Cl | inconclusive [inhibitor, single point] | –
Cc1cc(C)n(CC(O)COc2ccccc2C(=O)Nc2ccccc2)n1 (configuration not stated) | inconclusive [inhibitor, partial curve, poor fit] | –
CC(=O)c1c(C)[nH]c(C(=O)Nc2ccc(N3CCCCCC3)cc2)c1C | inconclusive [inhibitor, single point] | –

SMILES | Potency | activity change, negative = growth inhibition
CC(C#N)(NC(=O)CN1CCN(S(=O)(=O)c2cccc(F)c2)CC1)C1CC1 (configuration not stated) | inactive | –
Cc1cccc(NC(=O)c2nc[nH]c2C(=O)N2CCN(c3ccccc3)CC2)c1 | inactive | –
CN(Cc1c(F)cccc1Cl)C(=O)CNC(=O)c1cccs1 | inactive | –
CCOc1cccc(C(=O)Nc2ccc3c(c2)OCCO3)c1 | inactive | –
CC(C)c1ccc2oc(-c3cc(N)ccc3O)nc2c1 | inconclusive [inhibitor, single point] | –
Brc1ccccc1CN1CCN(Cc2c[nH]c3ccccc23)CC1 | active: 0.517 µM | –
CCN(CC)c1nn2c(=O)c(C(=O)NCCc3cccc(C)c3)cnc2s1 | inconclusive [inhibitor, single point] | –
COc1ccc(C(=O)NCC2(c3ccc(OC)c(OC)c3)CCCC2)cc1OC | inconclusive [inhibitor, partial curve] | –
Cc1ccc(NC(=O)CSc2ccccc2NC(=O)c2ccccc2)cc1Cl | active: 14.6 µM | –
CC(C)(C)NC(=O)C(c1ccncc1)N(C(=O)c1csnn1)c1cccc2ccccc12 (configuration not stated) | inactive | –
CCOC(=O)C1(CCOc2ccccc2)CCN(Cc2ccc(O)c(OC)c2)CC1 | inconclusive [inhibitor, single point] | –
Cc1ccc2nc(-c3ccccn3)c(Nc3ccccc3C)n2c1 | active: 2.91 µM and active: 16.4 µM | –
O=C(C1CCN(S(=O)(=O)c2cccs2)CC1)N(c1ccccn1)C1CCCCC1 | inconclusive [inhibitor, partial curve] | –
COc1ccc(S(=O)(=O)N2CCOCC2)cc1NC(=O)Cc1c(Cl)cccc1Cl | – | inconclusive: -36.1% [inhibitor]
COc1ccc(-c2noc(CSc3nc4ccccc4[nH]3)n2)cc1OC | active: 23.1 µM | –
CCc1nc2sc3c(O)cc(=O)[nH]c3c2cc1C | inconclusive [inhibitor, single point] | –
Cc1c(NC(=O)/C(C#N)=C/c2ccc(-c3cccc(Cl)c3)o2)c(=O)n(-c2ccccc2)n1C | inconclusive [inhibitor, single point] | –
CCC(CO)NCC(O)COCc1ccc2c(c1)OCO2 (configuration not stated) | inactive | –
CCc1cccc(C)c1NS(=O)(=O)c1ccc2c(c1)CC(C)N2C(=O)C1CC1 (configuration not stated) | inconclusive [inhibitor, single point] | –
O=[N+]([O-])c1cc2c(cc1C=Nc1ccccc1)OCO2 | inconclusive [inhibitor, single point] | –
CS(=O)(=O)c1cccc(C(=O)OCC(=O)c2ccc3c(c2)OCCO3)c1 | inactive | –
Cc1cccc(Cn2c(=O)n(-c3ccccc3C)c(=O)c3c2c2cc(C)ccc2n3C)c1 | active: 23.1 µM | –
COC(=O)c1cc(-c2c(-c3cc(OC)c(OC)c(OC)c3)noc2C)cc([N+](=O)[O-])c1 | active: 11.2 µM and active: 16.4 µM | –

SMILES | Potency | activity change, negative = growth inhibition
COc1cc(N2N=C(c3ccccc3)CC2c2ccccc2)c(C=O)cc1C=O (configuration not stated) | inconclusive [inhibitor, single point] | –
COc1cccc(Cl)c1NC(=O)N1CCN(c2ccnc3cc(Cl)ccc23)CC1 | inconclusive [inhibitor, single point] | –
C#CCN(C1CCCC1)S(=O)(=O)C=C | inconclusive [inhibitor, single point] | –
CC1CCCN(C(=O)CNC(=O)c2sc3ccccc3c2Cl)C1 (configuration not stated) | inactive | –
CC(N=c1ccccn1C(=O)Nc1cccc(C(F)(F)F)c1)c1ccco1 (configuration not stated) | inactive | –
COC(=O)[C@@]12CCCN1[C@H](c1ccc(-c3ccc(OC)cc3)c(OC)c1)[C@@H]1C(=O)N(C)C(=O)[C@@H]12 | active: 4.11 µM | –
CC(C)C[C@H](NC(=O)c1[nH]cnc1C(=O)Nc1ccc(CNC(=O)OC(C)(C)C)cc1)C(=O)OCc1ccccc1 | inconclusive [inhibitor, single point] | –
CCOc1ccc(CN(C)C(C)C(=O)NCc2ccccc2)cc1 (configuration not stated) | inconclusive [inhibitor, single point] | –
O=S(=O)(Nc1ncnc2sc3c(c12)CCC3)c1ccc(Cl)s1 | inconclusive [inhibitor, single point] | –
O=C(Nc1cccc(-c2cn3cccnc3n2)c1)c1ccc2c(c1)OCO2 | inactive | –
COc1ccc(S(=O)(=O)NCCc2csc3nc(-c4ccccc4)nn23)cc1OC | inconclusive [inhibitor, single point] | –
Cc1ccc(CN2CCN(C(=O)CCC(=O)Nc3nnc(C(C)C)s3)CC2)c(C)c1 | inconclusive [inhibitor, single point] | –
CCOC(=O)c1ccc(O)c(-n2cc3c(c2-c2ccccc2)c(=O)n(C)c(=O)n3C)c1 | inconclusive [inhibitor, partial curve] | –
Fc1cccc(CSc2ccc(-c3cccs3)nn2)c1 | inactive | –
CCOC(=O)c1cnc2ncnn2c1N | inactive | –
Cc1ccc(NC(=O)COC(=O)c2cccc3c(=O)c(C)c(-c4ccccc4)oc23)cc1 | inactive | –
COc1ccc(-c2csc3ncnc(N4CCN(S(=O)(=O)c5ccc(Cl)s5)CC4)c23)cc1 | inconclusive [inhibitor, single point] | –
CC(=O)c1ccc(NC(=O)CSc2nnc(Cc3cccn3C)n2-c2ccc(F)cc2)cc1 | inconclusive [inhibitor, single point] | –
CC(C)C[C@@H](CN=[N+]=[N-])N1CCN(CC(C)C)CCC1=O | inconclusive [inhibitor, single point] | –
CCC1(c2ccccc2)NC(=O)N(CC(=O)NNC(=O)COc2ccc(Cl)cc2C)C1=O (configuration not stated) | inactive | –
COc1ccccc1C(=O)N(c1ccc(C)cc1)S(=O)(=O)c1ccc(Cl)cc1 | inconclusive [inhibitor, single point] | –

From PubChem BioAssay AID686979 (National Center for Advancing Translational Sciences (NCATS), 2013)
